Experimental findings from paper PMC4336329 (PLoS ONE, 2015) are described below.

The campaign covered roughly 310,000 compounds. About 2,200 (0.71%) showed an effect of 50% or more. The effect is printed as a negative number. Some of the results follow.

Sequence of human ether-à-go-go-related gene (hERG) potassium channel (Q12809 whole entry, looked up): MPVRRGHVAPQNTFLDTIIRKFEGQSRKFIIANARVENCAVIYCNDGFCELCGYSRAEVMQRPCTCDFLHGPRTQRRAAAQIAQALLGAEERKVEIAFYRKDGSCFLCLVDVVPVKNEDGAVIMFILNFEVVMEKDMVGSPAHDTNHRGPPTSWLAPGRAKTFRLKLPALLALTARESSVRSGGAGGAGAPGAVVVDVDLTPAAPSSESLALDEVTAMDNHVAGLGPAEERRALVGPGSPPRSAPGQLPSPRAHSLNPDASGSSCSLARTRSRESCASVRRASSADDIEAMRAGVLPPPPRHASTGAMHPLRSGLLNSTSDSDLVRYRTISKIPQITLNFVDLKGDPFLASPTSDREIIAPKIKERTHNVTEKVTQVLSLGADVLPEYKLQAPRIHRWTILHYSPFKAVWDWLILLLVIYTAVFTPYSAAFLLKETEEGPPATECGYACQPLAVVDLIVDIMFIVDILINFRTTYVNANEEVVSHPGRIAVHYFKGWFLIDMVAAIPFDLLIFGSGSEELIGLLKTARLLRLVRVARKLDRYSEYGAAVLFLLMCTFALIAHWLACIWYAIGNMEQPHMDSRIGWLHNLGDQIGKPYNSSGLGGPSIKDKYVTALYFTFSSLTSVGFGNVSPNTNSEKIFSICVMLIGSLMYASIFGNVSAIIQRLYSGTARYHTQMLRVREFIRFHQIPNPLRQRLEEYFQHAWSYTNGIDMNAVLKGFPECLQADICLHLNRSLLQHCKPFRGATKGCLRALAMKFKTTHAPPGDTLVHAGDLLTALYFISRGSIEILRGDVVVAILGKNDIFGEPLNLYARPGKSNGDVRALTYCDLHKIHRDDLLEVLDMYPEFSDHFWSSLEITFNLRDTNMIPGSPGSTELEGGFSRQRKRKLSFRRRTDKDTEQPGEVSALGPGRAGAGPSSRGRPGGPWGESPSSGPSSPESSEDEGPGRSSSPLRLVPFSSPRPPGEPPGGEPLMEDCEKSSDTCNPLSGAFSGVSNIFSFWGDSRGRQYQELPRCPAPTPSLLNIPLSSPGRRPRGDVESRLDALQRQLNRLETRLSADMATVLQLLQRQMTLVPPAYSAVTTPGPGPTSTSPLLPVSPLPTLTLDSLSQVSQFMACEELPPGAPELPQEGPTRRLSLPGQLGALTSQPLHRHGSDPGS

The assay concerns the target human ether-à-go-go-related gene (hERG) potassium channel (human, UniProt Q12809). Put plainly: primary screen, population patch clamp on CHO cells stably expressing hERG.
Consider `O=C(c1cccc(N2C(=O)C3CC=CCC3C2=O)c1)N1CCN(c2ccccc2)CC1` (stereo not shown), for which the “hERG current change (%, negative = inhibition) at 1uM” value is listed as 5.13%.
With `CN(C)CCN(Cc1cc2cc3c(cc2[nH]c1=O)OCO3)C(=S)NCC1CCCO1` (stereo not shown) the figure was 9.5%; with `Cc1cccn2c(=O)c3cc(C(=O)NC(C)c4ccccc4)c(=N)n(CCCn4ccnc4)c3nc12` (stereo not shown), -10.8%.
With `Cc1ccc(CNC(=O)CCC2CCCN(C(=O)c3ccc4c(c3)OCO4)C2)o1` (stereo not shown) the figure was -1.7%; with `COc1ccccc1CN1CC(C(=O)N2CCN(c3ccc(F)cc3)CC2)CC1=O` (stereo not shown), -28.2%; with `O=C(Cc1cccc(NC(=O)C2CCN(C(=O)c3ccccc3)CC2)c1)Nc1cccc(C(=O)N2CCCC2)c1`, 13%.
Consider `CC(Oc1ccc(Cl)cc1)C(=O)Nc1ncccn1` (stereo not shown), for which the “hERG current change (%, negative = inhibition) at 1uM” value is -4.09%.
With `O=C(/C=C/c1cccs1)N1CCc2ccccc21` the figure was 12.1%; with `COc1cccc2cc(C(=O)N3CCN(c4ncccn4)CC3)c(=O)oc12`, 1.55%; with `Cc1cccc2cc(C(c3nnnn3CC3CCCO3)N3CCOCC3)c(=O)[nH]c12` (stereo not shown), 0.926%.
For the molecule `CC(C)CNS(=O)(=O)c1ccc(CCC(=O)N2CCN(c3ccccc3)CC2)cc1`, the “hERG current change (%, negative = inhibition) at 1uM” value is reported as -61.5%.
On to `COc1ccc(N2CCN(CCCNC(=O)CCCn3c(=O)[nH]c4ccsc4c3=O)CC2)cc1`, for which the “hERG current change (%, negative = inhibition) at 1uM” value was 4.24%.
With `O=C(NCCc1cccc(C(F)(F)F)c1)C1CCC(=O)N(CCc2cccc(F)c2)C1` (stereo not shown) the figure was -30.8%; with `O=C(NN1C(=O)C2C(C1=O)C1C=CC2C12CC2)c1ccc(Cl)cc1` (stereo not shown), -0.197%; with `COc1cc(C(O)CO)ccc1OS(=O)(=O)[O-].[K+]` (stereo not shown), 10.4%.
With `CC(C)c1ccc(N(C(=O)c2csnn2)C(C(=O)NC2CCCC2)c2cccnc2)cc1` (stereo not shown) the figure was 2.37%; with `CCn1cc(/C=C/C(=O)Nc2c(C)nn(Cc3ccccc3C)c2C)cn1`, 15.5%.
With `O=C(O)c1ccc(Nc2ccc(F)c(F)c2)c([N+](=O)[O-])c1`, the “hERG current change (%, negative = inhibition) at 1uM” value came to 9.1%.
With `COC(=O)c1cccc(NS(C)(=O)=O)c1` the figure was 13.4%.
With `COc1cccc(N(CC(=O)NCc2ccccc2)C(=O)CCC(=O)Nc2nccs2)c1` the figure was 13.1%; with `O=C(C(=O)N1CCN(c2ccc(F)cc2)CC1)N1CCCCC1`, 0.182%.
With `COc1ccc(Cl)cc1NC(=O)CN1CCN(C(=O)N2CCOCC2)CC1` the figure was -10.4%; with `C=C(C)Cn1c(-c2ccc(OC)cc2)nc2ccccc21`, -3.5%.
On to `Cc1ccc(S(=O)(=O)N2[C@@H](c3ccccc3F)C(C(=O)O)=CC[C@H]2c2ccc3c(c2)OCO3)cc1`, for which the “hERG current change (%, negative = inhibition) at 1uM” value is recorded as 19.2%.
With `CC1(C)Oc2ccc3ccc(=O)oc3c2/C(=C/N)C1=O` the figure was 11.7%; with `O=C(NCC(=O)N(c1ccc(F)cc1)C(C(=O)NC1CCCC1)c1ccncc1)c1ccco1` (stereo not shown), 16.8%.
With `CCn1cc([N+](=O)[O-])c(C(=O)Nc2cc(C)on2)n1` the figure was 1.32%; with `CCOC(=O)C1(CCCCCCOc2ccc(Cl)cc2)CO1` (stereo not shown), 4.14%.
With `COc1ccc2nc(C)cc(SCC(NC(C)=O)C(=O)OC(C)C)c2c1` (stereo not shown) the figure was 0.771%; with `COc1nc(NC(=O)c2ccc(F)cc2)nc(OC)c1-c1ccccc1`, 12%.
`C1=C(c2ccccc2)Nc2ccccc2N=C1c1ccccc1`: the “hERG current change (%, negative = inhibition) at 1uM” value was 4.22%.
With `CCOC(=O)C(CCCCCCP(=O)(c1ccccc1)c1ccccc1)NC(C)=O` (stereo not shown) the figure was 8.32%; with `Cc1ccc(CSc2nnc(NC(=O)C3COc4ccccc4O3)s2)cc1` (stereo not shown), 18.7%; with `COC(=O)c1cc(Br)c(=O)n(-c2nccs2)c1`, 2.77%.
With `CC(C)=CCN1CCN(Cc2ccc3nsnc3c2)CC1CCO` (stereo not shown) the figure was 4.93%; with `O=C(O)/C=C/c1ccccc1[N+](=O)[O-]`, 16.9%.
With `COc1ccccc1OC(C)C(=O)O` (stereo not shown) the figure was 12.3%; with `FC(F)(F)c1cccc(Cc2noc(CN3CCC(c4ccncc4)CC3)n2)c1`, 1.38%; with `COC(=O)c1cc(-c2cccs2)[nH]n1`, 11.7%.
Take `O=C(CSc1nnc2ncccn12)Nc1cccc2ccccc12`: the “hERG current change (%, negative = inhibition) at 1uM” value is 7.05%.
With `Cc1ccc(-c2nc3ncccc3o2)cc1NC(=O)c1ccc([N+](=O)[O-])o1` the figure was -8.08%; with `CC(C)(C)C(=O)N1CCN(c2ccc(NC(=O)c3ccc([N+](=O)[O-])o3)cc2)CC1`, 15.1%; with `CCNS(=O)(=O)c1ccc(CCC(=O)NCc2cccnc2)cc1`, 14.1%.
With `CCOc1ccc(/C=C/C(=O)Oc2ccccc2)cc1` the figure was 19.1%; with `Cc1ccc(N(CCCCN2C(=O)c3ccccc3C2=O)C(=O)c2cccc([N+](=O)[O-])c2)cc1`, -10.9%; with `COc1cc(NC(=O)CC(C)S(=O)(=O)c2ccc3c(c2)NC(=O)CO3)cc(OC)c1OC` (stereo not shown), 6.08%.
On to `COc1ccc(C(NC(=O)c2ccc(-c3ccccc3)cc2)c2ccccc2)cc1` (stereo not shown), for which the “hERG current change (%, negative = inhibition) at 1uM” value worked out at 1.43%.
With `O=C(Nc1cc(C(F)(F)F)ccc1-n1cncn1)c1ccc(Cl)cc1` the figure was 2.51%; with `CCOc1cc(S(=O)(=O)NC2CC(C)(C)NC(C)(C)C2)ccc1F`, 5.83%; with `CC1CCCC(C)N1C(=O)COC(=O)CCC1CCCC1` (stereo not shown), 9.29%.
With `Cc1nn2c(N3CCN(C4CCCC4)CC3)cc(C(C)(C)C)nc2c1-c1ccccc1` the figure was -1.17%; with `CCOC(=O)c1c(C)sc2c1N(C(=O)CCl)c1cc(Cl)ccc1S2`, 1.94%.
Turning to `CC(CNC(=O)c1ccco1)NC(=O)c1ccco1` (stereo not shown), the “hERG current change (%, negative = inhibition) at 1uM” value was determined as 13.5%.
With `CC(NC(=O)c1ccc(NC(=O)CC2SC(N3CCCC3)=NC2=O)cc1)c1ccccc1` (stereo not shown) the figure was 12.8%.
With `COCC(C)n1c(C)cc(C(=O)CN2C(=O)NC(Cc3c[nH]c4ccccc34)C2=O)c1C` (stereo not shown) the figure was 18.5%.
Consider `CC(C)CN(C(=O)COC(=O)c1ccccc1NCc1ccco1)c1c(N)n(Cc2ccccc2)c(=O)[nH]c1=O`, for which the “hERG current change (%, negative = inhibition) at 1uM” value is reported as -2.96%.
For `O=C1C(=O)N(CC2COc3ccccc3O2)c2ccccc21` (stereo not shown), the “hERG current change (%, negative = inhibition) at 1uM” value is given as 17.8%.
Consider `N=C1C(=O)OCC1c1ccccc1NC(=O)c1ccc(F)cc1` (stereo not shown), for which the “hERG current change (%, negative = inhibition) at 1uM” value was 10%.
With `O=C(NCCc1cnc[nH]1)c1ccc(-c2ccccc2)cc1` the figure was 5.83%; with `COc1ccccc1NC(=O)CSc1nnc(-c2ccco2)o1`, 8.16%.
With `COc1ccc(C(C)=O)cc1COC(=O)CNC(=O)c1ccccc1F` the figure was 7.66%.
Turning to `COc1ccc(N2CCN(C(=O)CNC(=O)Cn3cnc4sc(C)c(C)c4c3=O)CC2)cc1`, the “hERG current change (%, negative = inhibition) at 1uM” value is given as 9.32%.
With `Cc1ccc(Cl)cc1NC(=O)C1CC(=O)Nc2ncnn21` (stereo not shown) the figure was 8.13%; with `Cc1cccc(OCC(=O)Nc2ccccc2N2CCCCC2)c1`, 4.25%.
As to `CC1(C)CC(=O)C(C(=O)CCCCC(=O)C2C(=O)CC(C)(C)CC2=O)C(=O)C1`, the “hERG current change (%, negative = inhibition) at 1uM” value was 0.766%.
With `CCc1ccccc1NC(=O)CCC(=O)OCC(=O)c1ccc(-c2ccccc2)cc1` the figure was 4.76%; with `CCSc1nnc(-c2ccccc2N)c(=O)[nH]1`, 14.4%.
With `COc1ccccc1N1CCN(S(=O)(=O)c2ccccc2)CC1` the figure was -2.04%; with `COc1ccc(NC(=S)N2CCN(C(=O)c3ccccc3)CC2)cc1`, 0.609%; with `COc1ccc(Cl)cc1NC(=O)Nc1ccccc1SC`, 10.8%.
With `COc1ccc(C2CC(C)=C(C#N)S(=O)(=O)C2C#N)cc1` (stereo not shown) the figure was 6.79%.
As to `CCCCON1C(=O)c2cccc3cccc(c23)C1=O`, the “hERG current change (%, negative = inhibition) at 1uM” value was determined as 8.5%.
With `CCOCCCNC(=O)CN1C(=O)NC(Cc2c[nH]c3ccccc23)C1=O` (stereo not shown) the figure was 1.59%; with `CCN(CC)S(=O)(=O)c1ccc(NC(=O)Nc2cccc(C(F)(F)F)c2)cc1`, 10.1%.
With `O=C(Nc1ccccc1)N1CC2CC(C1)c1cccc(=O)n1C2` (stereo not shown) the figure was 14.7%; with `O=C(N/N=C/C(Cl)=C/c1ccccc1)c1ccccn1`, 7.13%.
With `O=C(Nc1nccs1)c1sc2cc(Cl)ccc2c1Cl` the figure was 9.44%; with `Cc1ccc(CN2CCSc3ccc(C(=O)NC4CCCC4)cc32)cc1`, 9.08%.
For `CC(=O)NS(=O)(=O)c1cccnc1Nc1ccc(Cl)cc1`, the “hERG current change (%, negative = inhibition) at 1uM” value came out at 12%.
With `O=C(N/N=C/c1cccc2ccccc12)c1cccnc1`, the “hERG current change (%, negative = inhibition) at 1uM” value turned out to be 2.57%.
As to `CC(=C/c1ccco1)/C=N/NC(=O)CSc1nnc(SCc2ccc(C)cc2)s1`, the “hERG current change (%, negative = inhibition) at 1uM” value is listed as 2.07%.
Take `COc1ccc(NC(=O)COCC(=O)Nc2ccc(C)cc2)cc1`: the “hERG current change (%, negative = inhibition) at 1uM” value was found to be 5.63%.
For the molecule `O=C(c1cc(-c2ccncc2)nc2ccc(Br)cc12)N1CCN(Cc2ccc3c(c2)OCO3)CC1`, the “hERG current change (%, negative = inhibition) at 1uM” value is -11.5%.
With `CC(C)CCn1c(CN2CCN(Cc3ccccc3)CC2)nc2c1c(=O)[nH]c(=O)n2C` the figure was -2.51%.
On to `Cc1cc(-c2nnc(CCC(=O)NC(C)(C)C34CC5CC(CC(C5)C3)C4)o2)no1`, for which the “hERG current change (%, negative = inhibition) at 1uM” value was determined as 9.18%.
With `COc1cc(=O)[nH]c(SC(C)C(=O)Nc2cc(C)on2)n1` (stereo not shown) the figure was 16.7%.
With `COc1ccc(NC(=O)CCn2ccnc2)c(OC)c1` the figure was 9.53%; with `Cl.O=C(O)C1=CCCNC1`, -30.7%.
